Measurements from PubChem BioAssay AID1508642 (National Center for Advancing Translational Sciences (NCATS), 2021).
Out of some 43,000 compounds screened, about 200 (0.47%) were called active. Roughly 12% stayed inconclusive and do not appear here. Calls come from the whole dose curve; as a rule, active = well fitted cell-killing curve with a large enough effect; inconclusive = small, poorly fitted or top-dose-only effect, or effect the other way; inactive = flat fitted curve, though single readings scatter. Some of the results follow.

Assay: Cell viability qHTS assay in S16 Pmp22-F2sN cells; note: nearly all actives have a fitted effect of over 65% in size
Settings: S16 Pmp22-F2sN Schwann cells viability, CellTiter-Glo, 24 h; series mostly up to 57.5 µM; activity change, negative = cytotoxicity: at the top concentration
Summary of the method: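 S16 Pmp22-F2sN Schwann cells (500-1,000/well) in phenol-red-free DMEM with 10% FBS received 23 nL compound by pin tool for 24 h at 37 °C. Viability was then read as CellTiter-Glo luminescence after 15 min at room temperature.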
% is set by controls: 0 for no effect and ±100 for the full control effect.

Row | SMILES | activity change, negative = cytotoxicity
1 | COc1ccc(Cl)cc1NC(=O)c1ncn(-c2ccccc2)n1 | inactive: -29.1%
2 | COc1ccc(OC)c(NC(=O)Cc2c(C)n(C(=O)c3ccc(Cl)cc3)c3ccc(OC)cc23)c1 | inactive: -18.3%
3 | CCOC(=O)c1cnc2ccc(C(=O)OC)cc2c1Nc1ccc(N2CCOCC2)cc1 | inactive: 0.399%
4 | CSCCC(NS(=O)(=O)c1cccs1)C(=O)Nc1ccc(C)c(Cl)c1 (stereo unspecified) | inactive: 5.1%
5 | CCOc1ccc(CCNC(=O)c2ccc(CS(=O)(=O)c3ccccc3C)o2)cc1OCC | inactive: 1.43%
6 | CCc1ccccc1Nc1ncnc2c1cnn2-c1ccc(Cl)cc1 | inactive: 2.65%
7 | CCc1ccccc1NC(=O)c1sc2nc3n(c(=O)c2c1C)CCC3 | inactive: -4.21%
8 | COc1cc(CN(C(=O)c2ccc(OC(C)C)cc2)C2CCS(=O)(=O)C2)cc(OC)c1OC (stereo unspecified) | inactive: -9.97%
9 | CC(=O)c1cccc(NC(=O)CN2C(=O)c3cccnc3Sc3ccccc32)c1 | inactive: -5.86%
10 | CCc1ccc(NC(=O)Cn2c(=O)n(-c3ccccc3)c(=O)c3ccc(C(=O)NCc4ccc5c(c4)OCO5)cc32)cc1 | inactive: 5.42%
11 | Cc1ccc(C)c(Cn2c(=O)n(Cc3ccco3)c(=O)c3oc4ccccc4c32)c1 | inactive: 14.9%
12 | CCOC(=O)c1ccccc1NC(=O)CSc1cc(C)[nH]c(=O)n1 | inactive: -4.53%
13 | COc1ccc(Cl)cc1NC(=O)CCN1C(=O)c2ccccc2Sc2ncccc21 | inactive: 0.0398%
14 | CC(=O)N1CCc2cc(S(=O)(=O)NC(CC(C)C)C(=O)NCCc3ccccc3)ccc21 (stereo unspecified) | inactive: -1.32%
15 | COc1cc(OC)c(NC(=O)N2CCN3CCCCC3C2)cc1Cl (stereo unspecified) | inactive: 2.79%
16 | CC(C)(C)c1cc(C(C)(C)C)c2oc(=O)c(-c3nc4ccc(C(=O)O)cc4[nH]3)cc2c1 | inactive: 19.1%
17 | Cc1cc(C)c2c(=O)cc(CSc3nnc(-c4ccccc4)n3C)[nH]c2c1 | inactive: -9.59%
18 | Cc1ccc(Nc2nc3ccccc3c3nnc(C)n23)cc1Cl | inactive: 0.631%
19 | COc1cc(-c2nnc(SCC(=O)Oc3ccccc3)o2)cc(OC)c1OC | inactive: 10.1%
20 | COc1ccc(OC)c(Nc2ncc3c(n2)CCN(Cc2cc(OC)c(OC)c(OC)c2)C3)c1 | inactive: 1.25%
21 | CC(C)C(=O)N1c2nc(C(C)C)nn2C2(CCCCC2)[C@@H]2CCCC[C@@H]21 | inactive: -1.77%

Row | SMILES | activity change, negative = cytotoxicity
22 | COc1ccc(CCN2C(=O)N(c3ccc(F)cc3)C(=O)C2CC(=O)Nc2ccc(OC)cc2)cc1 (stereo unspecified) | inactive: -28.8%
23 | CCOc1ccc(C(=O)NCC(c2ccc3c(c2)OCO3)N2CCN(c3ccc(F)cc3)CC2)cc1 (stereo unspecified) | inactive: 3.75%
24 | CCCC(CCC)C(=O)Nc1cccc(-c2nc3cccnc3s2)c1 | inactive: 25.1%
25 | CCc1ccccc1NC(=O)N1CCC2(CC1)Oc1ccccc1C(=O)N2Cc1ccccc1F | inactive: 8.66%
26 | COc1ccccc1Nc1ncc(C(=O)Nc2ccc(OC)c(OC)c2)c2ccccc12 | inactive: -1.57%
27 | O=C(c1ccc2c(c1)N(Cc1ccccc1)C(=O)c1ccccc1S2=O)N1CCC(Cc2ccccc2)CC1 (stereo unspecified) | inactive: -9.64%
28 | Cc1ccc2c(c1)c(=O)c(S(=O)(=O)c1ccc(C)c(C)c1)cn2CC(=O)Nc1ccccc1 | inactive: 4.56%
29 | CCc1cccc(C)c1NC(=O)C1=C(C)C(=O)OC12CCC(C)CC2 (stereo unspecified) | inactive: 4.71%
30 | CCCOc1ccc(C2=NC(c3ccc(F)cc3)=Nc3ccc(OC)cc3N2)cc1 | inactive: -0.388%
31 | COC(=O)c1cc(S(=O)(=O)N2CCN(c3ccc(F)cc3)CC2)cn1C | inactive: -13.4%
32 | COc1ccccc1CNC(=O)c1ccc2c(c1)CCN2S(=O)(=O)c1ccc(Cl)cc1 | inactive: 1.58%
33 | COc1ccc2nc(N(Cc3cccnc3)C(=O)COc3ccccc3)sc2c1 | inactive: -1.66%
34 | Cn1cc(C(=O)NCCc2ccc(Cl)cc2)c(=O)c2cc(S(=O)(=O)N3CCCCC3)ccc21 | inactive: -4.64%
35 | COC(=O)c1ccc(Cn2nnc3c(=O)[nH]c(C4CCCN(S(=O)(=O)c5ccccc5)C4)nc32)cc1 (stereo unspecified) | inactive: -5.12%
36 | Cc1ccc(Nc2ncnc3c2nc2n3CCCC2)c(Br)c1 | inactive: -5.32%
37 | COc1ccccc1CNC(=O)c1cnc2sc(N3CCOCC3)nn2c1=O | inactive: -4.43%
38 | COc1ccc(N2CCN(C(=O)Cn3nc(Cc4cccnc4)c4ccccc4c3=O)CC2)cc1 | inactive: -2.15%
39 | COc1ccc(NC(=O)NCC2CCN(Cc3ccccc3F)CC2)c(OC)c1 | inactive: -1.17%
40 | CCOc1ccccc1C(=O)Nc1cc(-c2ccc(C)cc2)no1 | inactive: -5.45%
41 | Cc1cccc(S(=O)Cc2ccc(C(=O)NC3CCCCCC3)o2)c1 (stereo unspecified) | inactive: 13.1%
42 | Cc1c(-c2ccccc2)n(-c2ccccc2O)c2nc3c(c(=O)n(C)c(=O)n3C)n12 | inactive: -11.6%

Row | SMILES | activity change, negative = cytotoxicity
43 | Cc1ccc(C(=O)Nc2ccc(C(=O)OCc3cc(=O)n4c5c(sc4n3)CCCC5)cc2)cc1 | inactive: -18.5%
44 | CCOc1ccc(-c2nnc(SCC(=O)NCCc3ccccc3)nc2-c2ccc(OCC)cc2)cc1 | inactive: 13.1%
45 | COc1cccc(CNc2nc3c(-c4cccc(C)c4)nnn3c3ccccc23)c1 | inactive: 5.65%
46 | CC(=O)Nc1ccc(NC(=O)CCC(=O)c2ccc(C)cc2)cc1 | inactive: -3.47%
47 | Cc1cc(NC(=O)C(C)(C)Oc2ccc(Cl)cc2)cc(-c2nc3ncccc3o2)c1O | inactive: 6.54%
48 | CCOc1ccccc1NC(=O)c1ccc2c(Cl)c3c(nc2c1)CCCC3 | inactive: 25.4%
49 | COc1ccc(C)cc1NC(=O)CCNS(=O)(=O)c1cccc2nonc12 | inactive: 12%
50 | CCc1ccc(NC(=O)c2sc3nc(C)c(Cl)c(C)c3c2NC(=O)c2ccccc2)cc1 | inactive: 7.47%
51 | Cc1cccc(CNC(=O)c2sc3ncnc(N(C)C4CCCCC4)c3c2C)c1 | inactive: 1.54%
52 | Cc1nn(-c2ccccc2)c2nc(C3CC3)cc(C(=O)NCc3ccccc3Cl)c12 | inactive: -1.01%
53 | CCN(CC)c1nc(-c2ccccc2Cl)c2cc(Br)ccc2n1 | inactive: 0.585%
54 | O=C(C1CC1)N1CCN(c2nc3c(F)cc(F)cc3s2)CC1 | inactive: -8.12%
55 | CC(C)Nc1ccc(-c2nc(-c3ccccn3)no2)cc1[N+](=O)[O-] | inactive: -0.551%
56 | Cc1cc(Cl)ccc1OCC(=O)N(Cc1ccc(N(C)C)cc1)CC1CCCO1 (stereo unspecified) | inactive: -28.5%
57 | Cc1cc(C)cc(C(=O)Nc2nnc3n2CCS3)c1 | inactive: -24.6%
58 | CCOC(=O)c1ccc(NC(=O)CSc2nccn2Cc2ccc(OC)cc2)cc1 | inactive: -0.246%
59 | O=C(CSc1ncc2c(n1)-c1cc(Cl)ccc1N(Cc1ccccc1F)S2(=O)=O)Nc1cccc(C(F)(F)F)c1 | inactive: 8.71%
60 | COC(=O)c1cc(NC(=O)c2ccc3c(c2)N(Cc2cccc(Cl)c2)C(=O)c2ccccc2S3=O)cc(C(=O)OC)c1 (stereo unspecified) | inactive: -2.26%
61 | CC(=O)c1cccc(NC(=O)c2c(C)nn(-c3ccc(F)cc3)c2-n2cccc2)c1 | inactive: -2.99%
